{
  "source": "paper PMC4336329",
  "about": "(PLoS ONE, 2015)",
  "note": "The campaign covered roughly 310,000 compounds. About 14,000 (4.5%) showed an effect of 50% or more. The effect is printed as a negative number. The list shows a part of the results.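 Note: peak tail current of the secondary pulse compared with the same well before compound.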",
  "data": [
    {"molecular_target": "human ether-à-go-go-related gene (hERG) potassium channel (human, UniProt Q12809)", "sequence (Q12809 whole entry, looked up)": "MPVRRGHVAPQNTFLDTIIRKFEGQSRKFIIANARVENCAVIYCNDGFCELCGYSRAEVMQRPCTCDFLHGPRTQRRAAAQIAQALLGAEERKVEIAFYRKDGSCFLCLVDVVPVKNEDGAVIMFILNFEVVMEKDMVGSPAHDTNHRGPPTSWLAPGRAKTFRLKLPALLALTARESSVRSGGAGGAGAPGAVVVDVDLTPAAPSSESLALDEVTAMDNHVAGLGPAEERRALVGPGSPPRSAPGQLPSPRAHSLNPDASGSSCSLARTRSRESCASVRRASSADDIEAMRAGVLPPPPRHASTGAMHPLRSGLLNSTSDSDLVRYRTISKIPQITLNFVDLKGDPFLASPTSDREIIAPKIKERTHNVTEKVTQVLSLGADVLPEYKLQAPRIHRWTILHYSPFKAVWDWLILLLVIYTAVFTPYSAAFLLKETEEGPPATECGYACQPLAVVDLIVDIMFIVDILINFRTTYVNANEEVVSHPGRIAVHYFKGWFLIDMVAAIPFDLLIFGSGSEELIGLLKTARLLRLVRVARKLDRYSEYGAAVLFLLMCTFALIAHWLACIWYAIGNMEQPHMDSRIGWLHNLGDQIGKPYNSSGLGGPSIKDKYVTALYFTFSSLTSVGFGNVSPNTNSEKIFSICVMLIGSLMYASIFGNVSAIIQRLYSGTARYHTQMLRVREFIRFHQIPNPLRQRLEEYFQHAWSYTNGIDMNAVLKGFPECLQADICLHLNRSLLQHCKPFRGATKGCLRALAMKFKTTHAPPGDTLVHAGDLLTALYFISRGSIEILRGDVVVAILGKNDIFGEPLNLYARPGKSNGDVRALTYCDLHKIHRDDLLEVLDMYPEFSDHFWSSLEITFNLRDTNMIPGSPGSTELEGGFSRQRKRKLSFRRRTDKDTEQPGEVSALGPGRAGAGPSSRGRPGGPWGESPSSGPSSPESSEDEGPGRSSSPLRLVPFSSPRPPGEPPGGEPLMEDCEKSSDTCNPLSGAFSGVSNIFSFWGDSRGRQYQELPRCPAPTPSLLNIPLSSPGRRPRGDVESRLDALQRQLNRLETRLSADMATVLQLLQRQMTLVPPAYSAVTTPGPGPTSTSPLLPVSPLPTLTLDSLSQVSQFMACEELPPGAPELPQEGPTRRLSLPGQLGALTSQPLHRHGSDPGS", "experiment": "primary screen, population patch clamp on CHO cells stably expressing hERG", "units": {"hERG current change (%, negative = inhibition) at 10uM": "%"}, "values": [
      {"compound": "CCOc1ccc2nc(N3CCC(C(=O)N4CCN(c5ccccn5)CC4)CC3)sc2c1", "hERG current change (%, negative = inhibition) at 10uM": -45.7},
      {"compound": "CC1CC(C)CN(CCOc2cccc3ccccc23)C1", "note": "(centres unmarked)", "hERG current change (%, negative = inhibition) at 10uM": -26.8},
      {"compound": "Cc1ccccc1NC1=C(Cl)C(=O)OC1NC(=O)c1ccccc1", "note": "(centres unmarked)", "hERG current change (%, negative = inhibition) at 10uM": 8.94},
      {"compound": "CCC(=O)Nc1cccc(-c2cn3ccccc3n2)c1", "hERG current change (%, negative = inhibition) at 10uM": 5.99},
      {"compound": "Cc1cccnc1NC(=S)NCc1ccco1", "hERG current change (%, negative = inhibition) at 10uM": -2.97},
      {"compound": "Cc1cc(OC(=O)C(c2ccccc2)c2ccccc2)c([N+](=O)[O-])c(=O)[nH]1", "hERG current change (%, negative = inhibition) at 10uM": 22.4},
      {"compound": "Nc1nc2nccc(-c3ccccn3)n2n1", "hERG current change (%, negative = inhibition) at 10uM": 9.01},
      {"compound": "O=C1COc2ccc(N3C(=O)c4ccccc4C3=O)cc2N1", "hERG current change (%, negative = inhibition) at 10uM": 27.5},
      {"compound": "COc1ccccc1CCNC(=O)CCNS(=O)(=O)c1ccc(NC(C)=O)cc1", "hERG current change (%, negative = inhibition) at 10uM": 11.9},
      {"compound": "Cc1ccc(C(=O)COC(=O)c2cccc(NC(=O)c3ccc([N+](=O)[O-])cc3[N+](=O)[O-])c2)cc1", "hERG current change (%, negative = inhibition) at 10uM": 5.39},
      {"compound": "Cc1cccc(C(C)C)c1NC(=O)C1CN(S(=O)(=O)c2ccccc2)CCN1S(=O)(=O)c1ccccc1", "note": "(centres unmarked)", "hERG current change (%, negative = inhibition) at 10uM": 5.83},
      {"compound": "CCc1nnc(N/N=C/c2ccccc2Cl)n1N.Cl", "hERG current change (%, negative = inhibition) at 10uM": 9.59},
      {"compound": "CC(C)(C)c1cc(NC(=O)c2ccc(OC3CCCC3)cc2)no1", "hERG current change (%, negative = inhibition) at 10uM": 14.2},
      {"compound": "CC1CCN(C(=O)c2cc(-c3ccco3)on2)CC1", "hERG current change (%, negative = inhibition) at 10uM": -9.01},
      {"compound": "O=C(NCc1ccccc1F)C1CCCN1C(=O)Nc1cccc(F)c1", "note": "(centres unmarked)", "hERG current change (%, negative = inhibition) at 10uM": 2.32},
      {"compound": "O=C(O)C1CC=CCC1C(=O)c1ccccc1", "note": "(centres unmarked)", "hERG current change (%, negative = inhibition) at 10uM": -0.335},
      {"compound": "Cc1cc(C)nc(NC(=O)c2ccc(Br)s2)n1", "hERG current change (%, negative = inhibition) at 10uM": 14.5},
      {"compound": "CCN(CC)C(=O)Cn1cc(S(=O)(=O)CC(=O)N2CCOCC2)c2ccccc21", "hERG current change (%, negative = inhibition) at 10uM": 6.33},
      {"compound": "Cc1ccc(Cl)cc1NC(=O)c1cnn2c1NC(c1ccco1)CC2C(F)(F)F", "note": "(centres unmarked)", "hERG current change (%, negative = inhibition) at 10uM": -14.3},
      {"compound": "OC(COc1cccc2ccccc12)CN1CCN(c2cccc(Cl)c2)CC1", "note": "(centres unmarked)", "hERG current change (%, negative = inhibition) at 10uM": 1.82},
      {"compound": "N/C(=N\\OC(=O)c1cc([N+](=O)[O-])ccc1Cl)c1cccnc1", "hERG current change (%, negative = inhibition) at 10uM": 2.44},
      {"compound": "C/C(=N\\NC(=O)c1c(Cl)c(C)nn1C)c1cccc(NC(=O)COc2ccc(Cl)cc2)c1", "hERG current change (%, negative = inhibition) at 10uM": 4.19},
      {"compound": "O=C1CNC(=O)/C1=C\\N1CCCCC1", "hERG current change (%, negative = inhibition) at 10uM": 14.3},
      {"compound": "CC(C)(C)NS(=O)(=O)c1ccc(NS(=O)(=O)c2ccc(F)cc2)cc1", "hERG current change (%, negative = inhibition) at 10uM": 9.98},
      {"compound": "OCCC1CN(Cc2cn[nH]c2C2CCCCC2)CCN1Cc1ccccc1", "note": "(centres unmarked)", "hERG current change (%, negative = inhibition) at 10uM": 0.824},
      {"compound": "CC1CCCN(C(=O)C2CCN(c3ncnc4c3nc3n4CCCCC3)CC2)C1", "note": "(centres unmarked)", "hERG current change (%, negative = inhibition) at 10uM": -6.03},
      {"compound": "C/C(=N\\O)c1ccc(Cl)c(Cl)c1", "hERG current change (%, negative = inhibition) at 10uM": 6.14},
      {"compound": "O=c1[nH]c(CN2CCN(S(=O)(=O)c3ccc4ccccc4c3)CC2)nc2ccccc12", "hERG current change (%, negative = inhibition) at 10uM": 2.03},
      {"compound": "CC(C(=O)NCC1CCCCC1)N(C)Cc1cccc(Cl)c1", "note": "(centres unmarked)", "hERG current change (%, negative = inhibition) at 10uM": -14.5},
      {"compound": "CC(=O)c1cccc(NC(=O)COc2ccccc2C(=O)c2cc(C#N)c(=O)n(C3CCCCC3)c2)c1", "hERG current change (%, negative = inhibition) at 10uM": -20.5},
      {"compound": "COc1ccc(C(=O)NCCc2cc3c(OC)ccc(OC)c3[nH]c2=O)cc1OC", "hERG current change (%, negative = inhibition) at 10uM": -1.06},
      {"compound": "Cl.N[C@@H](CO)c1cn([C@@H](Cc2cc3ccccc3[nH]2)C(=O)N2CCNCC2)nn1", "hERG current change (%, negative = inhibition) at 10uM": 10.2},
      {"compound": "CN(C)c1ccc(NC(=O)CC2NCCNC2=O)cc1", "note": "(centres unmarked)", "hERG current change (%, negative = inhibition) at 10uM": 6.28},
      {"compound": "O=C(c1ccc2ccccc2c1)N1CCN(Cc2ccccc2)CC1", "hERG current change (%, negative = inhibition) at 10uM": -24.4},
      {"compound": "O=C1NC(=O)C(=Cc2ccc(-c3ccc(S(=O)(=O)N4CCOCC4)cc3)o2)C(=O)N1", "hERG current change (%, negative = inhibition) at 10uM": 12.2},
      {"compound": "Cc1ccsc1-c1nc(CSCC(=O)N2CCC3(CC2)OCCO3)c(C)o1", "hERG current change (%, negative = inhibition) at 10uM": 6.53},
      {"compound": "COCCn1nnnc1CN1CCOCC1.Cl", "hERG current change (%, negative = inhibition) at 10uM": 6.72},
      {"compound": "Cc1cccc(C(=O)NNC(=O)c2cccc(C)c2)c1", "hERG current change (%, negative = inhibition) at 10uM": 15.9},
      {"compound": "CC(C)CCN1C(=O)CCC1(C)C(=O)NC1CCCCCC1", "note": "(centres unmarked)", "hERG current change (%, negative = inhibition) at 10uM": -4.75},
      {"compound": "Cc1ccccc1CN1CCC(Oc2ccc(C(=O)N3CCCC3)cc2)CC1", "hERG current change (%, negative = inhibition) at 10uM": -13.7},
      {"compound": "Cc1cc(Cl)n2ncc(-c3ccccc3)c2n1", "hERG current change (%, negative = inhibition) at 10uM": -15.2},
      {"compound": "O=C(/C=C/c1ccco1)Nc1cccnc1", "hERG current change (%, negative = inhibition) at 10uM": 1.95},
      {"compound": "Cc1cccc(CN2CCN(Cc3cccc4nonc34)CC2CCO)n1", "note": "(centres unmarked)", "hERG current change (%, negative = inhibition) at 10uM": -24.1},
      {"compound": "COc1cc(NC(=O)C2CC2)c(C(=O)O)cc1OC", "hERG current change (%, negative = inhibition) at 10uM": 6.36}
    ]}
  ]
}
